Among all 310,000 compounds or so, about 17,000 (5.5%) were called active. Inconclusive results (about 11%) are left out. Calls follow the shape of the dose curve; as a rule, active = well fitted inhibition curve with a large enough effect; inconclusive = small, poorly fitted or top-dose-only effect, or effect the other way; inactive = no such curve, though single readings can be large or run the other way. Only a part is listed here, and it is no random draw. A structure can be active in one record and inactive in another.
These compounds were tested against Nuclear receptor ROR-gamma (Mus musculus) (UniProt P51450) (assay: qHTS for inhibitors of ROR gamma transcriptional activity). Settings: Drosophila S2 Gal4-RORgamma UAS-luciferase reporter, 20 h; series mostly up to 53.6 µM; activity change, negative = inhibition: at the top concentration.
Chain of UniProt P51450 (P51450 whole entry, looked up, the tested form may be a part): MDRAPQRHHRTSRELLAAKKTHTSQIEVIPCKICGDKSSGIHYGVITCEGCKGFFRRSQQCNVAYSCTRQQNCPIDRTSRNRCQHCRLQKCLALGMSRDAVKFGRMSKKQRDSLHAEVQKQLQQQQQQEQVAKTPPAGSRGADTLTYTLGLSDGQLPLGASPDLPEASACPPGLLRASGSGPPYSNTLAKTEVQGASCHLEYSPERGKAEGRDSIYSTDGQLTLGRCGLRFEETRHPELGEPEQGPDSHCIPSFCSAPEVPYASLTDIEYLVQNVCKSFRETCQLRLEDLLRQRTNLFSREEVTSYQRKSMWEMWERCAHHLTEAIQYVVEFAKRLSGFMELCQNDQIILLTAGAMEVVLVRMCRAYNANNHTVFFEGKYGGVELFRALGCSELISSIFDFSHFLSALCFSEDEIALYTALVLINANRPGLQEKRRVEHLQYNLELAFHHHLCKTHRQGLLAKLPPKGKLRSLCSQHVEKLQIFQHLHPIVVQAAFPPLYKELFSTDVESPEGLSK
How it was run: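 A Gal4/UAS one-hybrid system in insect cells: metallothionein-promoter Gal4–ROR gamma fusion plus Photinus luciferase reporter. Copper sulfate 700 uM final, 20 hr ambient incubation, luminescent detection after 10 min with reagent.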
% is scaled to controls: 0 for no effect and ±100 for the full control effect; potency is read from the fitted curve at half-maximal effect.
Also: nearly all actives have a fitted effect of over 60% in size.

Row | SMILES | Potency | activity change, negative = inhibition
1 | C/C(CC(=O)Nc1ccc([N+](=O)[O-])cc1)=N\NC(=O)c1ccccc1O | active: 11.2 µM | 
2 | CCCCOC(=O)C1[C@H]2C(=O)N(CCc3ccccc3)C[C@]23C=C[C@H]1O3 (some centres not stated) |  | inactive: 2.49%
3 | Cc1ccc(C2c3[nH]c4ccccc4c3C[C@H]3C(=O)N(c4ccccc4C(=O)N4CCC[C@@H]4C(=O)O)C(=O)N23)cc1 (some centres not stated) |  | inactive: 19.1%
4 | C#CCNC(=O)C1=C[C@H](c2ccccc2)[C@@H](CCCO)[C@H](OCC)O1 |  | inactive: 11.6%
5 | COc1ccc(NC(=S)/N=C(\N)Nc2nc(C)c3ccccc3n2)cc1 | active: 1 µM | 
6 | CCC(NC(=S)NC1CCCCC1)c1ccccc1 (configuration not stated) | active: 3.16 µM | 
7 | O=C1/C(=C\c2cccnc2)SC(=S)N1c1ccc(F)cc1 |  | inactive: 14.9%
8 | CCCC1OC2CC3C4CCC5=CC(=O)C=CC5(C)C4C(O)CC3(C)C2(C(=O)CO)O1 (configuration not stated) |  | inactive: -37.5%
9 | O=C(CCCN1C(=O)/C(=C\c2cccc(Br)c2)SC1=S)Nc1cccnc1 |  | inactive: 0.881%
10 | O=C(C1=C[C@@H](c2ccc(Br)cc2)C[C@@H](OCCCCO)O1)N1CCN(Cc2ccccc2)CC1 |  | inactive: -43.2%
11 | CNCC(O)c1ccc(O)c(O)c1 (configuration not stated) |  | inactive: 8.72%
12 | O=C(NCc1nc2ccccc2[nH]1)C1=C[C@@H](C2CCCCC2)C[C@@H](OCc2ccc(CO)cc2)O1 |  | inactive: -37.9%
13 | CCCCCCC(=O)Cc1cc(OC)c(OC)cc1C=C(C(=O)OCC)C(=O)OCC |  | inactive: -9.84% [at 10 µM]
14 | O=[N+]([O-])C(/C=C(/Cl)[N+](=O)[O-])=C(N1CCCCC1)N1CCCCC1 |  | inactive: -38.7%
15 | COc1ccc(Cl)cc1C(=O)NCCc1ccc(S(=O)(=O)NC(=O)NC2CCCCC2)cc1 | inactive | 
16 | COc1cc2c3nnc(-c4ccc(F)cc4)c-3cn(Cc3ccc(C)cc3)c2cc1OC | active: 5.01 µM | 
17 | CC#C[C@]1(O)CC[C@H]2[C@@H]3CCC4=CC(=O)CCC4=C3[C@@H](c3ccc(N(C)C)cc3)C[C@@]21C |  | inactive: -29.2%
18 | Cc1ccc(-c2cc(C3C4C=CCCC4(C)C(=O)N3Cc3ccccc3)ccc2F)cc1 (configuration not stated) |  | inactive: 14.5%
19 | CC(C)c1nnc(NC(=O)CSc2nnc(-c3ccco3)o2)s1 | active: 11.2 µM | 
20 | Cc1c(Cl)cccc1NC(=S)NCCC(C)C | active: 4.47 µM | 
21 | COCC(=O)N/N=C\c1ccc(OC/C=C/c2ccccc2)c(OC)c1 | active: 12.6 µM | 
22 | C=C1C(=O)O[C@H]2[C@H]1[C@@H](O)CC(=C)[C@@H]1CC(=O)[C@@H](C)[C@H]21 | active: 12.6 µM | 
23 | Cn1cc[nH]c1=S | inactive | 

Row | SMILES | Potency | activity change, negative = inhibition
24 | CC1=NS(=O)(=O)c2cc(Cl)ccc2N1 | inactive | 
25 | COc1cccc(OC)c1C(=O)NC(=S)N1CCN(c2ccc(C(F)(F)F)cc2[N+](=O)[O-])CC1 | active: 7.08 µM | 
26 | COc1cc([C@@H]2c3cc4c(cc3[C@@H](O[C@@H]3O[C@H]5CO[C@@H](C)O[C@@H]5[C@@H](O)[C@H]3O)[C@@H]3COC(=O)[C@@H]23)OCO4)cc(OC)c1O |  | inactive: -30.7%
27 | COc1ccc(Br)cc1[C@H]1[C@H]2C=CC[C@@H](C)[C@@H]2C(=O)N1Cc1ccccc1 |  | inactive: 5.59%
28 | Cc1nn(C)c(Cl)c1S(=O)(=O)N[C@@H](c1ccccc1)[C@]1(C)C[C@H]1[C@@H](C)C(=O)Nc1ccc2ccccc2c1 |  | inactive: 35.6%
29 | COC(=O)[C@H]1C[C@@H]1[C@H](NC(=O)c1ccccc1)c1ccccc1 |  | inactive: -30.5%
30 | COC(=O)[C@@]1(Cc2ccc(OC)cc2)[C@H]2c3cc(C(=O)N(C)C)[nH]c3C[C@H]2CN1C(=O)c1ccccc1 |  | inactive: 10.7%
31 | Cc1nc2sccn2c(=O)c1CCN1CCC(=C(c2ccc(F)cc2)c2ccc(F)cc2)CC1 | inactive | 
32 | CC(C)NC(=O)[C@@H]1C[C@@]1(C)[C@@H](NC(=O)OCc1ccccc1)c1ccccc1 |  | inactive: 1.45%
33 | CCOC(=O)[C@@H]1[C@H]2COc3ccc(Br)cc3[C@H]2N2C(=O)N(c3cccc(F)c3)C(=O)[C@]12C |  | inactive: -21.2%
34 | Cc1ccc(SC[C@H](c2ccccc2)N2CCN(CCc3ccccc3)CCC2=O)cc1 |  | inactive: 34.1%
35 | Cc1cc(CNC(=O)[C@H]2C[C@@H]2[C@H](NP(=O)(c2ccccc2)c2ccccc2)c2ccccc2)nn1C |  | inactive: 12.6%
36 | COc1ccc2c(c1)O[C@@H](c1ccc3c(c1)OCO3)[C@H](OC(=O)NCc1ccco1)C2=O |  | inactive: 35.5%
37 | C/C(=N\NC(=S)NCc1ccccc1)c1ccccc1F | active: 1.26 µM | 
38 | CCCCCn1c(=N)n(CC(O)COc2ccccc2OC)c2ccccc21 (configuration not stated) |  | inactive: 0.342%
39 | Nc1ccc(C(=O)O)c(O)c1 | inactive | 
40 | O=C1C2C(c3ccccc3)CC=CC2C(c2ccoc2)N1Cc1ccccc1 (configuration not stated) |  | inactive: 3.35%
41 | C[C@H]1CC[C@@]2(O[C@H](CCO)C[C@@H](O)[C@@H]2O)O1 |  | inactive: -15.9%
42 | O=C1C=C(c2ccccc2)OC(=O)C1C(=O)c1ccccc1 (configuration not stated) |  | inactive: -8.94%
43 | COc1ccc(C[C@H]2CN3C(=NC[C@H]3Cc3ccccc3)N2CCNC(=O)CCC2CCCCC2)cc1 |  | inactive: -35.8%
44 | COc1cc(/C=C2/SC(=O)NC2=O)ccc1Oc1ccc([N+](=O)[O-])cc1[N+](=O)[O-] |  | inactive: -28%
45 | COc1cccc(C2c3[nH]c4ccccc4c3CCN2Cc2cccc(C)n2)c1 (configuration not stated) | active: 12.6 µM | 
46 | Nc1nc(NCC2CCC(CNS(=O)(=O)c3cccc4ccccc34)CC2)nc2ccccc12 (configuration not stated) |  | inactive: -32.9%

Row | SMILES | Potency | activity change, negative = inhibition
47 | O=C(Nc1ccccc1)C1=C[C@H](c2ccc(Br)cc2)C[C@H](OCc2ccc(CO)cc2)O1 |  | inactive: 32.4%
48 | CC(=O)N[C@H](c1ccccc1)[C@@]1(C)C[C@@H]1[C@@H](C)C(=O)Nc1ccc2ccccc2c1 |  | inactive: 31.6%
49 | c1ccc(-c2nc3ccccc3s2)nc1 |  | inactive: -1.46%
50 | C[C@]1(C(=O)NCCc2c[nH]c3ccccc23)C=C[C@@H](Cc2ccccc2)N1C(=O)c1ccccc1 |  | inactive: -37%
51 | C#CCn1c(=NC(=O)c2ccc(Cl)s2)sc2cccc(OC)c21 | active: 2.24 µM | 
52 | Cc1cccc(N=C2NC(=O)/C(=C\c3cccs3)S2)c1 |  | inactive: 19.5%
53 | CCN1CCC[C@H]1CNC(=O)c1cc(S(N)(=O)=O)ccc1OC | inactive | 
54 | CCCCCCCCCCCC(=O)O |  | inactive: 4.68%
55 | CC[C@@H]1CC=C[C@H]2[C@H]1C(=O)N(Cc1ccccc1)[C@H]2c1cc(C)ccc1F |  | inactive: 36.7%
56 | CCOC(=O)[C@@H]1[C@H]2COc3cc(OC)ccc3[C@H]2N2C(=O)N(c3ccc(C(F)(F)F)cc3)C(=O)[C@@]12C |  | inactive: -0.201%
57 | C=C1CCN([C@@H](C)C(=O)OCc2ccc(C)cc2)S(=O)(=O)c2ccccc21 |  | inactive: 8.3%
58 | Clc1ccccc1C(c1ccccc1)(c1ccccc1)n1ccnc1 |  | inactive: -35.6% [at 2.98 µM]
59 | CN(c1cccc2cccnc12)S(=O)(=O)c1ccccc1 |  | inactive: -22%
60 | Cc1ccc(C(NC(=O)C(C)C)c2cc([N+](=O)[O-])c3cccnc3c2O)cc1 (configuration not stated) | active: 2.24 µM | 
61 | CC[C@]1(O)C[C@@H]2CN(CCc3c([nH]c4ccccc34)[C@@](C(=O)OC)(c3cc4c(cc3OC)N(C)[C@H]3[C@@](O)(C(=O)OC)[C@H](OC(C)=O)[C@]5(CC)C=CCN6CC[C@]43[C@@H]65)C2)C1 |  | inactive: 34.9%
62 | CCOC(=O)c1cc(-c2cccs2)nc2c1c(C)nn2-c1ccccn1 | active: 1.78 µM | 
63 | O=C(NN1C(=O)/C(=C/c2ccc(O)c([N+](=O)[O-])c2)SC1=S)c1ccccc1Cl |  | inactive: 20.7%
64 | COc1ccc(-n2c(=S)[nH]c3ccccc32)cc1 | active: 4.47 µM | 
65 | CC(=O)Nc1cccc(C2=CC(c3ccco3)n3ncnc3N2)c1 (configuration not stated) | active: 6.31 µM | 
66 | Cc1ccc(OCc2ccc(C(=O)Nc3nc4ccccc4n3C)o2)c([N+](=O)[O-])c1 | active: 5.62 µM | 
67 | C[C@@H](C(=O)O)[C@H]1C[C@]1(C)[C@H](NC(=O)OCc1ccccc1)c1ccccc1 |  | inactive: 26.2%
68 | C#CCNC(=O)C1=C[C@@H](C2CCCCC2)C[C@@H](OCc2ccc(CO)cc2)O1 |  | inactive: 40.9%
69 | COc1ccc2cc1Oc1ccc(cc1)C[C@H]1c3c(cc4c(c3Oc3cc5c(cc3OC)CCN(C)[C@@H]5C2)OCO4)CCN1C |  | inactive: -33.4%

Row | SMILES | Potency | activity change, negative = inhibition
70 | COc1ccc(CC(=O)c2ccc(O)cc2O)cc1 |  | inactive: -9.63%
71 | COC(=O)[C@H](Cc1ccccc1)NC(=O)O[C@@H]1C(=O)c2cc(Br)ccc2O[C@H]1c1cccc(OC)c1 |  | inactive: 25.3%
72 | COc1ccc(CC(N)C(=O)NC2C(CO)OC(n3cnc4c(N(C)C)ncnc43)C2O)cc1 (configuration not stated) |  | inactive: -4.31%
73 | CCN(CC)CCC(c1ccc(N(C)C)cc1)c1c(OC)cc(OC)c2c(-c3ccccc3)cc(=O)oc12 (configuration not stated) |  | inactive: 13.6%
74 | O=C(NC1=NCCS1)c1cc(-c2cccs2)nc2ccccc12 | active: 25.1 µM | 
75 | O=C(c1ccc(OCCN2CCCCC2)cc1)c1c(-c2ccc(O)cc2)sc2cc(O)ccc12 | inactive | 
76 | COC(=O)[C@@]1(Cc2ccc(OC)cc2)[C@H]2c3cc(C(=O)N(C)C)n(Cc4ccc(OC(F)(F)F)cc4)c3C[C@H]2CN1C(=O)c1ccccc1 |  | inactive: 41%
77 | O=C(CC12CC3CC(CC(C3)C1)C2)NC(=S)NCc1ccccc1 | active: 2 µM | 
78 | CCOC(=O)[C@@H]1[C@H]2COc3cc(OC)ccc3[C@H]2N2C(=O)N(c3ccc(C)cc3)C(=O)[C@@]12C |  | inactive: -23.7%
79 | O=C(C1=C[C@H](C2CC2)C[C@H](OCc2ccc(CO)cc2)O1)N1CCOCC1 |  | inactive: -12.4%
80 | COc1ccc(C(=O)NNC(=O)c2ccccn2)cc1 | active: 7.08 µM | 
81 | COc1ccccc1OCCNCC(O)COc1cccc2[nH]c3ccccc3c12 (configuration not stated) | active: 1 µM | 
82 | CCCCCCNC(=O)N1C/C=C\C(c2ccc(OC)cc2)N(Cc2ccc(F)cc2)C(=O)C1 (configuration not stated) |  | inactive: -10.4%
83 | COC(=O)[C@@]1(Cc2ccc(OC)cc2)[C@H]2c3cc(C(=O)N4CCCC4)n(CCc4c[nH]c5ccc(O)cc45)c3C[C@H]2CN1C(=O)c1ccccc1 |  | inactive: 2.37%
84 | Clc1ccccc1CN1CCN(/N=C/C=C\c2ccco2)CC1 |  | inactive: 15.2%
85 | O=C(NC1CC1)C1=C[C@H](c2ccc3c(c2)OCO3)C[C@H](OCc2ccc(CO)cc2)O1 |  | inactive: 21.6%
86 | Cc1ccccc1NC(=S)Nc1cccc2cnccc12 | active: 10 µM | 
87 | COc1ccc(C2c3ccc4ccccc4c3Oc3ncn(CCCO)c(=N)c32)cc1 (configuration not stated) | active: 3.98 µM | 
88 | CCC1=C(OC(=O)N(CC)CC)N2C(=O)OC(=NCCc3c[nH]c4ccccc34)[C@]2(C)[C@H]2C1=CC[C@H]1C(=O)N(CC(=O)OC)C(=O)[C@H]12 |  | inactive: 18.3%
89 | NC(=S)NN=C1c2cc(OCCN3CCOCC3)ccc2-c2ccc(OCCN3CCOCC3)cc21 | active: 1.26 µM | 
90 | COc1ccc(C2c3ccc4ccccc4c3Oc3ncn(CCN(C)C)c(=N)c32)cc1 (configuration not stated) | active: 31.6 µM | 
91 | COc1ccc(O[C@H]2C=C[C@@H](c3ccccc3)O[C@@H]2CO/N=C(\C)CCN2CCCCc3nc(C)c(C)cc32)cc1 |  | inactive: -3.8% [at 10 µM]
92 | O=Cc1ccc(-c2nc3ccccc3s2)o1 | active: 4.47 µM | 
